The values below come from publication PMC8357826, “The extracellular chaperone Clusterin enhances Tau aggregate seeding in a cellular model” (Nature Communications, 2021).

Data set [1] concerns the molecule itself. Kind of data set: co-sedimentation; TauRD aggregation reactions (10 µM TauRD, 2.5 µM heparin, 2 mM MgCl2, 37 °C, 850 rpm) without or with equimolar Clu present from the start; centrifuged at 16,100 × g, 4 °C, 1 h; total, supernatant and pellet quantified by immunoblot. A general note: In western blotting, separated proteins are transferred to a membrane and probed.

Data set [2] addresses T1, Clusterin labeled with Alexa Fluor 647 (Clu-A647) (human, UniProt P10909 23-227; P10909 228-449, Alexa Fluor 647 on the N-terminus (NHS ester); N-glycosylated | Alexa Fluor 647 on the N-terminus (NHS ester); N-glycosylated).
T1 construct: Clusterin beta chain, cut from the precursor in the secretory pathway and disulfide-linked to the alpha chain; Clusterin alpha chain, cut from the precursor in the secretory pathway and disulfide-linked to the beta chain; labeling efficiency typically about 65-70%; also called labeled Clu; source: HEK293-EBNA suspension cells (HEK293E-CluStrep), secreted, purified; labeled with Alexa647 NHS ester
The experiment in a line: dual-color fluorescence cross-correlation spectroscopy (dcFCCS); whole aggregation reaction (1 µM TauRD-A532, 9 µM unlabeled TauRD, 1.25 µM Clu-A647) from 1.5-2 h after initiation of aggregation (ThT-positive TauRD aggregates); diluted 100-fold in PBS before measurement. The note with it: both partners purified.

Data set [3] concerns the target T2, Clusterin (Clu; apolipoprotein J), recombinant with Strep tag (CluStrep) (human, UniProt P10909 23-227; P10909 228-449, N-glycosylated | N-glycosylated).
T2 construct: Clusterin beta chain, cut from the precursor in the secretory pathway and disulfide-linked to the alpha chain; Clusterin alpha chain, cut from the precursor in the secretory pathway and disulfide-linked to the beta chain; Clu cDNA amplified from HEK293T cells; 'Clu followed by a strep tag'; Purification protocol: protocols.io 10.17504/protocols.io.bvvkn64w; also called Clusterin-Strep tag; …
The experiment in a line: dual-color fluorescence cross-correlation spectroscopy (dcFCCS); excess unlabeled Clu added to TauRD-A532/Clu-A647 complexes; FCCS signal followed. The note with it: both partners purified.

B1: cysteine-free TauRD (Tau repeat domain, […], C291A/P301L/C322A/V337M) (domain or fragment)
chain: not shown
notes: Tau repeat domain, Tau […]; Used as monomer (0 h) and as heparin-induced aggregates (10 µM TauRD, 2.5 µM heparin, 2 mM MgCl2, 37 °C); the assays tell the states apart; also called unlabeled TauRD; source: E. coli BL21(DE3), purified (Ni-NTA, Usp2 cleavage, Source30S cation exchange, Superdex-75 SEC); not shown: His6-ubiquitin, N-terminal, cleaved
For the molecule B1, in data set [1], the binding result is on record as “binds”.

B2: TauRD-I260C labeled with Alexa Fluor 532 (TauRD-A532; Tau […], I260C/C291A/P301L/C322A/V337M) (domain or fragment)
chain: not shown
modifications: Alexa Fluor 532 (C5 maleimide) on cysteine 260
notes: Tau repeat domain, Tau […]; In the dcFCCS experiments 1 µM TauRD-A532 was mixed with 9 µM unlabeled TauRD, so the aggregates hold both; also called labeled TauRD; source: E. coli BL21(DE3), purified (Ni-NTA, Usp2 cleavage, Source30S cation exchange, Superdex-75 SEC with 1 mM TCEP); labeled with Alexa532 C5 maleimide; not shown: His6-ubiquitin, N-terminal, cleaved
On to B2, for which the binding result in data set [2] and in data set [3] was “binds” in each case.
